In ChEMBL document CHEMBL5634115, “Exploring novel anticancer pyrazole benzenesulfonamides featuring tail approach strategy as carbonic anhydrase inhibitors” (Eur J Med Chem, 2023):
pIC50: −log10 of the molar value.

These compounds were tested against Carbonic anhydrase 12 (Homo sapiens, UniProt O43570).
Chain of Carbonic anhydrase 12 (O43570 whole entry): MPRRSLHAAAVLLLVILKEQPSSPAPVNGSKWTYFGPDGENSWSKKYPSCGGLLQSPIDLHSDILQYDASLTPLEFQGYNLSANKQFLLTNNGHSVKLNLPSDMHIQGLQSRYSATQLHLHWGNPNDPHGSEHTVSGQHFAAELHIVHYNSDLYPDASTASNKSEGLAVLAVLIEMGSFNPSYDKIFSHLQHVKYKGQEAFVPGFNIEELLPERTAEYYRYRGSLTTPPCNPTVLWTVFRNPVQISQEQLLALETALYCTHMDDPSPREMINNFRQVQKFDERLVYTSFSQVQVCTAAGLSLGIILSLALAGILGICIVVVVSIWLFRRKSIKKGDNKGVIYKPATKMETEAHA

Compound | pIC50
COc1ccc(-c2nn(-c3ccc(S(N)(=O)=O)cc3)cc2/C=N/Nc2ccc(C(=O)O)cc2)cc1 | 6.68
CCOC(=O)c1cn(-c2ccc(S(N)(=O)=O)cc2)nc1-c1ccc(OC)cc1 | 6.56
CS(=O)(=O)c1ccc(-c2nn(-c3ccc(S(N)(=O)=O)cc3)cc2C(=O)NNC(N)=O)cc1 | 6.26
NS(=O)(=O)c1ccc(-n2cc(/C=N/NC3=NS(=O)(=O)c4ccccc43)c(-c3ccccc3)n2)cc1 | 6.42
NS(=O)(=O)c1ccc(N/N=C/c2cn(-c3ccc(S(N)(=O)=O)cc3)nc2-c2ccccc2)cc1 | 5.87
COc1ccc(-c2nn(-c3ccc(S(N)(=O)=O)cc3)cc2/C=N/Nc2ccc(S(N)(=O)=O)cc2)cc1 | 5.54
COc1ccc(-c2nn(-c3ccc(S(N)(=O)=O)cc3)cc2C(=O)NNC(N)=O)cc1 | 5.98
NS(=O)(=O)c1ccc(N/N=C/c2cn(-c3ccc(S(N)(=O)=O)cc3)nc2-c2ccc(Br)cc2)cc1 | 5.62
NS(=O)(=O)c1ccc(-n2cc(/C=N/Nc3ccc(C(=O)O)cc3)c(-c3ccc(Br)cc3)n2)cc1 | 7.08
CS(=O)(=O)c1ccc(-c2nn(-c3ccc(S(N)(=O)=O)cc3)cc2C(=O)O)cc1 | 5.75
CCOC(=O)c1cn(-c2ccc(S(N)(=O)=O)cc2)nc1-c1ccc(C)cc1 | 7.42
CCOC(=O)c1ccc(N/N=C/c2cn(-c3ccc(S(N)(=O)=O)cc3)nc2-c2ccc(Br)cc2)cc1 | 5.93
CS(=O)(=O)c1ccc(-c2nn(-c3ccc(S(N)(=O)=O)cc3)cc2/C=N/Nc2ccc(S(N)(=O)=O)cc2)cc1 | 6.24
COc1ccc(-c2nn(-c3ccc(S(N)(=O)=O)cc3)cc2C(=O)NO)cc1 | 6.44
NC(=O)NNC(=O)c1cn(-c2ccc(S(N)(=O)=O)cc2)nc1-c1ccccc1 | 5.69
NS(=O)(=O)c1ccc(-n2cc(C(=O)NO)c(-c3ccccc3)n2)cc1 | 6.14
CCOC(=O)c1cn(-c2ccc(S(N)(=O)=O)cc2)nc1-c1ccccc1 | 6.26
CCOC(=O)c1cn(-c2ccc(S(N)(=O)=O)cc2)nc1-c1ccc(S(C)(=O)=O)cc1 | 7.04
CS(=O)(=O)c1ccc(-c2nn(-c3ccc(S(N)(=O)=O)cc3)cc2/C=N/Nc2ccc(C(=O)O)cc2)cc1 | 6.75
CCOC(=O)c1ccc(N/N=C/c2cn(-c3ccc(S(N)(=O)=O)cc3)nc2-c2ccc(S(C)(=O)=O)cc2)cc1 | 7.00
CS(=O)(=O)c1ccc(-c2nn(-c3ccc(S(N)(=O)=O)cc3)cc2C(=O)NN)cc1 | 6.27
CS(=O)(=O)c1ccc(-c2nn(-c3ccc(S(N)(=O)=O)cc3)cc2C(=O)NO)cc1 | 7.13
Cc1ccc(-c2nn(-c3ccc(S(N)(=O)=O)cc3)cc2/C=N/Nc2ccc(C(=O)O)cc2)cc1 | 6.99
CCOC(=O)c1cn(-c2ccc(S(N)(=O)=O)cc2)nc1-c1ccc(Br)cc1 | 6.78
Cc1ccc(-c2nn(-c3ccc(S(N)(=O)=O)cc3)cc2C(=O)NO)cc1 | 7.16
Cc1ccc(-c2nn(-c3ccc(S(N)(=O)=O)cc3)cc2C(=O)NNC(N)=O)cc1 | 6.41
NS(=O)(=O)c1ccc(-n2cc(C(=O)NO)c(-c3ccc(Br)cc3)n2)cc1 | 7.10
